# Results reported in the RNAGym collection of RNA variant scans (doi:10.1073/pnas.2313332121).
# This sample is rich in variants without activity.
# B1: TPR 5TU (parent)
# chain: GGAUCUUCUCGAUCUAACAAAAAAGACAAAUCUGCCACAAAGCUUGAGAGCAUCUUCGGAUGCAGAGGCGGCAGCCUUCGGUGGCGCGAUAGCGCCAACGUUCUCAACUAUGACACGCAAAACGCGUGCUCCGUUGAAUGGAGUUUAUCAUG
# Variants of: B1
# Test: polymerase ribozyme fitness, log enrichment relative to wild type (log ratio); higher = more active; in vitro selection for triplet polymerase activity
# Procedure, shortened: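 A heterodimeric triplet polymerase ribozyme had each of its subunits mutagenized by PCR into a library, which was transcribed. One round of in vitro selection, done in triplicate, annealed each library with a biotinylated primer, its partner subunit and triplets, then incubated it frozen at −7 °C before gel excision of extended constructs, streptavidin-bead capture and RT-PCR. Fitness is the logarithm of genotype enrichment relative to wild-type enrichment, based on Illumina sequencing of inputs and outputs and inverse-variance-weighted replicate averages. A base-2 logarithm is used, and genotypes were kept only with ≥10 input reads and ≥1 read per output.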
row,Variant,polymerase ribozyme fitness (log ratio)
1,A26C U61A A64U C85A A110C,≤ -4.2
2,A26U A49G C75A A97G C108U,≤ -4.2
3,A26C U144C,-2.23
4,C27G A49G C85U U139C,≤ -4.2
5,C27A U53A A119C,≤ -4.2
6,A26G A60C U82G U101G C116G C125A A138G,≤ -4.2
7,A26U U55A G58C G62C A119U G133C U146G,≤ -4.2
8,A26G C57U C87A C114G C116U U134G,≤ -4.2
9,A26U C32G G86A C105U,≤ -4.2
10,A26U A64U C93A A106C A119G A138U,≤ -4.2
11,C27A C85U C96A C114U A119G G140C,-4.07
12,A26U A29G A41C C87A A115U,≤ -4.2
13,C27A G84A C96G U130A U145A,≤ -4.2
14,A26U A29U U55A A91U U148G,≤ -4.2
15,A26U C36U U44A C57A G68C C118A U135G,≤ -4.2
16,A26G U44A C54U C72A U90A A115G C118U,≤ -4.2
17,A26C G94A C131U,-1.51
18,A26G G42C C95U A150U,≤ -4.2
19,A26U C51U C114U C129U,≤ -4.2
20,A26U A30G C32U G58C,≤ -4.2
21,A26U G42A,≤ -4.2
22,A26U A49C U56A G83U C85U,≤ -4.2
23,A26G C38A A60U A64C C76U,≤ -4.2
24,A26G C27U A47G C54A U56G G86A,≤ -4.2

row,Variant,polymerase ribozyme fitness (log ratio)
1,A26C G50U C54U C96G,-3.92
2,A26U U53G A89C C103U G117U,≤ -4.2
3,A26U C57U G92A A120G U146C,≤ -4.2
4,A26U A30U C85U G133C,≤ -4.2
5,C27A U45A C87U A138C,≤ -4.2
6,C27G A49G G81A G92C,≤ -4.2
7,C27G A30U A52G G59C,≤ -4.2
8,A26U C79A,≤ -4.2
9,A26G A28C C36U C54G C85G C108U G133C,≤ -4.2
10,C27A G84U C129G A150C,≤ -4.2
11,A26G U55G A89C,≤ -4.2
12,A26U C27G C36G C85G,≤ -4.2
13,C27A A60U A91U A106U,≤ -4.2
14,C27G A49C G136A,≤ -4.2
15,A26U U31C C63A G83C G94A C95U A98U,≤ -4.2
16,A26U A37C A47G C85U U90A U145A U146C,≤ -4.2
17,A26G C35G C57A G81C C87G,≤ -4.2
18,A26G C57U G58A C87A,≤ -4.2
19,A26U C27A A47G G65U U78G C108U A115G,≤ -4.2
20,C27A C85A G86U A91C U101A C118G,≤ -4.2
21,A26U C36A U101A G143U U144A,≤ -4.2
22,A26U A52C C96A,-3.2
23,C27A U90G A107U,≤ -4.2
24,C27A A47C A120U U139A,≤ -4.2

row,Variant,polymerase ribozyme fitness (log ratio)
1,A26G C75A G81A G140A U148C,≤ -4.2
2,A26C G59U A60C C75U G80C U102A A115G A120C,≤ -4.2
3,A26C G50A G74C U102G,≤ -4.2
4,A26U C27U G88A A106U,≤ -4.2
5,C27A C85A C93G C96G,≤ -4.2
6,C27A G50C C54U G58A C95G U146G,≤ -4.2
7,A26U G42A G48U C85G C87A U102A,≤ -4.2
8,C27A C38U G81A G86U A110U,≤ -4.2
9,C27A A37U A91C,-4.17
10,A26G A30G G50U U78G C87G C99U,≤ -4.2
11,A26G U53A U82G C96U A113C,≤ -4.2
12,A26U A52G C85U,-1.69
13,C27A G86U C118G A147U,≤ -4.2
14,C27G C32A A39C G50A G58C G62A C99A U109C U145G,≤ -4.2
15,A26U A28U A47C C57U A66G C96G,≤ -4.2
16,A26U G84C U145G,≤ -4.2
17,A26G C57A C79A U82G C87G G92C G100A A106G C114G,≤ -4.2
18,A26U G94C,-2.1
19,C27A C54G G67U G84C,≤ -4.2
20,A26G A52U A137G U145G,≤ -4.2
21,A26C G117C,-2.51
22,C27A A28U C36U G67C A91G A115U A150G,≤ -4.2
23,C27G C35U G74U C118U U130A A137U,≤ -4.2
24,A26G A52C G59C A64C,≤ -4.2

row,Variant,polymerase ribozyme fitness (log ratio)
1,A26G A49U C85U A107G,≤ -4.2
2,A26C U53A C57A C96U U101G C108A A115U G133A A150G,≤ -4.2
3,A26U A41C G68C U78G U90C A91U A107U U109C C149G,≤ -4.2
4,A26G U31G C43G C51A C75U C96U,≤ -4.2
5,C27A C32G C38U A66C A91U C99G,≤ -4.2
6,A26G C76A,-3.95
7,A26U G50C,≤ -4.2
8,C27A A41G C72A A91G C95U C103A,≤ -4.2
9,A26C G100U,-4
10,A26U U61A G71C C79U A98G U151A,≤ -4.2
11,C27A C32U G46A G86U C105A,≤ -4.2
12,A26U A28U G81C U90A,≤ -4.2
13,C27A U33G A39G A60C C93U U127C G140A,-4.14
14,C27G A29U A30G G50C A52C C54A G71A C93A G128C,≤ -4.2
15,A26G U53A C85U A91G G133A U139A,≤ -4.2
16,C27A G50U C57U A60C C116G U146G A147C,≤ -4.2
17,A26U U53G C87G G140A,≤ -4.2
18,A26U C87G,≤ -4.2
19,A26U C35A U104G A150C,≤ -4.2
20,A26U A39C A49G G128A A138G,≤ -4.2
21,C27A A89C C93A A115G,≤ -4.2
22,A26G G50U U55A C57U C103A G143A,≤ -4.2
23,C27G A37G C72A C105A,-4.13
24,A26G C38U C54G U55A,≤ -4.2

row,Variant,polymerase ribozyme fitness (log ratio)
1,A26U A30G A60G G62C G92U G126A,≤ -4.2
2,A26U G42A C85A G88U G133C A150G,≤ -4.2
3,A26U A29C A47G A49U G59C G65A G117C U139G,≤ -4.2
4,C27A A73C C96U A142C,≤ -4.2
5,A26G C51U C96A A107U A121C C149G,≤ -4.2
6,A26U C118G,-2.12
7,A26U C118A,-2.33
8,C27A U55A C76U A98G,≤ -4.2
9,A26G U33A C35G U56A G59A,≤ -4.2
10,A26U C69A C85A C149U,≤ -4.2
11,A26U A41C U44A G59A G126U G128A A137G,≤ -4.2
12,A26U A40C C76A G92C A121C,≤ -4.2
13,C27A C93U C116U G126A A147G,≤ -4.2
14,A26C U78A G84A G126C C149G,≤ -4.2
15,A26U A52G G74C U127A C132U U139C,≤ -4.2
16,A26U A39C A49C A106G U135C,≤ -4.2
17,A26U A47C A49C G80C C85A A113G A150U,≤ -4.2
18,C27G C35G A64U A73G C79A C85G A91U,≤ -4.2
19,C27A U33C G88C G141C,≤ -4.2
20,A26U U61G A97G A150G,≤ -4.2
21,A26U C43A A49G G58C C93U G112A,≤ -4.2
22,A26U G86U,-3.84
23,C27A G42C C63G C75U U77C A89C C95U A106C G126A U148A,≤ -4.2
24,A26U A97U A119G,-2.34

row,Variant,polymerase ribozyme fitness (log ratio)
1,A26U U78C G94A C95A A98G A138G,≤ -4.2
2,C27A U78C C96U A142G U145C,≤ -4.2
3,A26U G67A C72G G94U A97G A147G,≤ -4.2
4,C27A A49C C54G C87U C116G U134A,≤ -4.2
5,C27A G59A C79G A110C U144C,≤ -4.2
6,A26G C63A G80A C85G C87G C114A A137U,≤ -4.2
7,C27A C54A C95U,≤ -4.2
8,A26G A52C A91C,≤ -4.2
9,A26U U55G G62U C95A U130A G140U A147U,≤ -4.2
10,A26G G83C C96U A147U G152A,≤ -4.2
11,A26G G67C A119C U134G U135A,≤ -4.2
12,A26G C27U G84A U90G A142C G152C,≤ -4.2
13,C27A A37U G42C A106C C116G A121G G128A U145G,≤ -4.2
14,A26U C96U C116G,-1.18
15,A26U U53A G124C A137C A138U,≤ -4.2
16,C27A A41U U44A G71C C93G A115U U151A,≤ -4.2
17,A26U C57A C85U A107C,≤ -4.2
18,A26G A40C U55A C96A G100C C103G,≤ -4.2
19,A26G U56A C57U U78A G84C C125A,≤ -4.2
20,A26U C32G A52G U53A C54U C87U C95A G136A G140U,≤ -4.2
21,C27A C54A C96G G117A U130C,≤ -4.2
22,C27A C36G U56G C57U G83A,≤ -4.2
23,C27G A39G G50C G58C C96G A98U,≤ -4.2
24,C27A G83U G126U U145C,≤ -4.2

row,Variant,polymerase ribozyme fitness (log ratio)
1,A26C G50C C85U C87A A121G U151A,≤ -4.2
2,A26G C43U C123U,≤ -4.2
3,A26G G42C C57A U134A A138U,≤ -4.2
4,A26U G42C C93G A115U,≤ -4.2
5,A26U C43U U55A C95U,≤ -4.2
6,A26U C27U A28G A37C C38U A52G A73U C105U,≤ -4.2
7,A26C U44A G70U C85G U127C A138G,≤ -4.2
8,A26U A39C C54U A91G A107C,≤ -4.2
9,C27A U78G A89G A91C G94A A115C C118U U134A,≤ -4.2
10,A26G A29C G50A U90G,≤ -4.2
11,A26U A40U C76A U77C C93G G124A,≤ -4.2
12,C27A C36U C87G G126C C149U,≤ -4.2
13,A26G A39U G48C A60C A73C G92U U104G U135G U148C,≤ -4.2
14,A26U G71A G83A A120U,≤ -4.2
15,A26U A29C C51U G59A A60G U134C,≤ -4.2
16,C27G A37U C54G A64U C76G A106G,≤ -4.2
17,A26U C75U U148G,≤ -4.2
18,A26U G92A,-3.86
19,C27A A60U G133A U135C A150U,≤ -4.2
20,A26C U44G A91U U145C,≤ -4.2
21,C27G A120G,≤ -4.2
22,A26G A30C A39C A47U C76U C93U A97G G133A G140U G141A,-4.02
23,A26G A40C C43U C57A U144G,≤ -4.2
